A collection of fitness landscapes (doi:10.1016/j.celrep.2020.107928)
In all, about 81,000 sequences were measured (“one-hybrid fitness for binding NBS DNA”: median about -0.1, highest 2% from about 0.36 on). Some of the results follow.

B1: Caulobacter ParB omega fusion; a variant is named by its letters at X, in order, B8GW30 (parent)
chain: MESVVVGEPGMSEGRRGLGRGLSALLGEVDAAPAQAPGEQLGGSREAPIEILQRNPDQPRRTFREEDLEDLSNSIREKGVLQPILVRPSPDTAGEYQIVAGERAWRAAQRAGLKTVPIMVRELDDLAVLEIGIIENVQRADLNVLEEALSYKVLMEKFERTQENIAQTIGKSXSHVANXMRLLXLPDEVQSYLVSGELTAXHARAIAAAADPVALAKQIIEGGLSVRETEALARKAPNLSAGKSKGGRPPRVKDTDTQALESDLSSVLGLDVSIDHRGSTGTLTITYATLEQLDDLCNRLTRGI

Variants of: B1
Assay: one-hybrid fitness for binding NBS DNA (the Noc-binding site; scaled: cognate 1, non-cognate 0); higher = stronger binding
Details: with NBS DNA site
Method in brief: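 On M9-minus-histidine containing 0.1 mM IPTG and 5 mM 3-AT, E. coli USO cells with a HIS3 reporter, site 19 bp from the promoter, grew 48 hours at 37°C to select Caulobacter ParB libraries randomised at four specificity codons. Plasmids from before and after were Illumina-sequenced, with three replicate libraries pooled and variants under 10 reads left out. Fitness is the log change in variant-to-wild-type read ratio, rescaled against cognate and non-cognate.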

Variant	one-hybrid fitness for binding NBS DNA
HAYT	≤ 0.2
RGYC	≤ 0.2
KIKY	≤ 0.2
FVQI	≤ 0.2
LPHG	≤ 0.2
KTSM	≤ 0.2
GYPM	≤ 0.2
RWDN	≤ 0.2
SICL	≤ 0.2
IQDV	≤ 0.2
LMLC	≤ 0.2
PIYT	≤ 0.2
EGQR	≤ 0.2
VYNM	≤ 0.2
IQSI	≤ 0.2
AVWC	≤ 0.2
LIST	≤ 0.2
IEPM	≤ 0.2
RFQD	≤ 0.2
ALFS	≤ 0.2
QKCS	0.419
RNQP	≤ 0.2
YRMC	≤ 0.2
MLSS	≤ 0.2

Variant	one-hybrid fitness for binding NBS DNA
WMIP	≤ 0.2
HNSG	≤ 0.2
MYNK	≤ 0.2
WMHS	≤ 0.2
QAQM	≤ 0.2
PAPL	≤ 0.2
QFHT	≤ 0.2
RGTH	≤ 0.2
LVHC	≤ 0.2
REVS	≤ 0.2
GCKT	≤ 0.2
MWRY	≤ 0.2
HQLA	≤ 0.2
ELAR	≤ 0.2
DVVD	≤ 0.2
QCPG	≤ 0.2
QCGC	0.244
YRVG	≤ 0.2
SKYH	≤ 0.2
LEKP	≤ 0.2
KMVS	≤ 0.2
GSCH	≤ 0.2
TLTK	≤ 0.2
ANHS	≤ 0.2

Variant	one-hybrid fitness for binding NBS DNA
PAYC	≤ 0.2
SAHV	≤ 0.2
CTVC	≤ 0.2
NTTV	≤ 0.2
VDLG	≤ 0.2
PLGV	≤ 0.2
RLMS	0.269
TAFG	≤ 0.2
TKWW	≤ 0.2
EDTD	≤ 0.2
ICRM	≤ 0.2
QIQG	≤ 0.2
LIPM	≤ 0.2
EPGT	≤ 0.2
MIQT	≤ 0.2
RIQA	≤ 0.2
KCRF	≤ 0.2
QDVL	≤ 0.2
HATH	≤ 0.2
PYWR	0.235
VMTI	≤ 0.2
KNQP	≤ 0.2
GNTN	≤ 0.2
RPIV	≤ 0.2

Variant	one-hybrid fitness for binding NBS DNA
AGGW	≤ 0.2
GLPD	≤ 0.2
AFPV	≤ 0.2
MRYI	≤ 0.2
VQHS	≤ 0.2
PPPG	≤ 0.2
IWNL	≤ 0.2
ACFK	≤ 0.2
FVNA	≤ 0.2
NLVG	≤ 0.2
SFWG	≤ 0.2
DCKR	0.337
TCSL	≤ 0.2
GEAS	≤ 0.2
TSAV	≤ 0.2
SRFL	≤ 0.2
YYYN	≤ 0.2
WPHF	≤ 0.2
RANP	≤ 0.2
TPYT	≤ 0.2
ERTV	≤ 0.2
SMAY	≤ 0.2
ECGT	≤ 0.2
CRGT	≤ 0.2

Variant	one-hybrid fitness for binding NBS DNA
PNTV	≤ 0.2
EARC	≤ 0.2
DEPY	≤ 0.2
NVWS	≤ 0.2
SAYN	≤ 0.2
FPYD	≤ 0.2
EMCF	≤ 0.2
PFRH	≤ 0.2
RGPR	0.216
FGAA	≤ 0.2
PKRH	≤ 0.2
RRCH	0.382
GINA	≤ 0.2
IWSK	≤ 0.2
GARW	≤ 0.2
AEWH	≤ 0.2
HPQR	≤ 0.2
KQKA	≤ 0.2
ASRE	≤ 0.2
IRHT	0.28
IRHP	≤ 0.2
VDRE	≤ 0.2
TGIP	≤ 0.2
GSKR	0.201

Variant	one-hybrid fitness for binding NBS DNA
GQLT	≤ 0.2
SYKQ	≤ 0.2
CRTS	≤ 0.2
RTWK	≤ 0.2
LIYH	≤ 0.2
KVLR	≤ 0.2
PDSM	≤ 0.2
KNTC	≤ 0.2
LRFF	≤ 0.2
NPDI	≤ 0.2
WTYC	≤ 0.2
TKKT	≤ 0.2
HRCQ	≤ 0.2
VMDM	≤ 0.2
RDPR	≤ 0.2
WQHG	≤ 0.2
MSIN	≤ 0.2
CEKS	≤ 0.2
PYDI	≤ 0.2
QWPV	≤ 0.2
MPIS	≤ 0.2
VRVC	≤ 0.2
NATM	≤ 0.2
DHPM	≤ 0.2

Variant	one-hybrid fitness for binding NBS DNA
GPGG	≤ 0.2
RRQG	0.377
QFFS	≤ 0.2
DVTS	≤ 0.2
WAKM	≤ 0.2
KYHP	≤ 0.2
RAGL	≤ 0.2
YPAG	≤ 0.2
AQEC	≤ 0.2
PACL	≤ 0.2
GPSG	≤ 0.2
TSSS	≤ 0.2
RTMA	≤ 0.2
GLEE	≤ 0.2
WRRY	≤ 0.2
LTPT	≤ 0.2
TYIG	≤ 0.2
RKSK	≤ 0.2
